Measurements taken from publication PMC9911399, “Two distinct binding modes provide the RNA-binding protein RbFox with extraordinary sequence specificity”.
Substitutions are numbered along the chain they refer to; changes in the protein carry UniProt numbers. The list shows a part of the results.

T1: RBFOX1 RRM (Homo sapiens, UniProt Q9NWB1 109-208)
T1 sequence: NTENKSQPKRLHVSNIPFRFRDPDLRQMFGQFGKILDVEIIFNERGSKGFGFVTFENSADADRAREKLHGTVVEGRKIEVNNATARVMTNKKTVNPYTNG

B1: UUAUCGG (DNA:RNA)
RNA: GGGAGACCGGAAUUCAGAUUGUCCUUAUCGGUUAAAUCCCGUCGUAGCCACCA
DNA 1: CAATCTGAATTCCGGTCTCCC
DNA 2: TGGTGGCTACGACGGGATT
B2: AUCCACU (DNA:RNA)
RNA: B1 RNA with U25A, A27C, U28C, C29A, G30C, G31U
DNA 1: CAATCTGAATTCCGGTCTCCC
DNA 2: TGGTGGCTACGACGGGATT
B3: UGACUAG (DNA:RNA)
RNA: B1 RNA with U26G, U28C, C29U, G30A
DNA 1: CAATCTGAATTCCGGTCTCCC
DNA 2: TGGTGGCTACGACGGGATT
B4: AAGGAAC (DNA:RNA)
RNA: GGGAGACCGGAAUUCAGAUUGUCCAAGGAACUUAAAUCCCGUCGUAGCCACCA
DNA 1: CAATCTGAATTCCGGTCTCCC
DNA 2: TGGTGGCTACGACGGGATT
B5: GUAGCCA (DNA:RNA)
RNA: B1 RNA with U25G, U28G, G30C, G31A
DNA 1: CAATCTGAATTCCGGTCTCCC
DNA 2: TGGTGGCTACGACGGGATT
B6: GUUAUGA (DNA:RNA)
RNA: B1 RNA with U25G, A27U, U28A, C29U, G31A
DNA 1: CAATCTGAATTCCGGTCTCCC
DNA 2: TGGTGGCTACGACGGGATT
B7: CUCGGUG (DNA:RNA)
RNA: B1 RNA with U25C, A27C, U28G, C29G, G30U
DNA 1: CAATCTGAATTCCGGTCTCCC
DNA 2: TGGTGGCTACGACGGGATT
B8: CCGAACA (DNA:RNA)
RNA: B4 RNA with A25C, A26C, G28A, A30C, C31A
DNA 1: CAATCTGAATTCCGGTCTCCC
DNA 2: TGGTGGCTACGACGGGATT
B9: AGAACGC (DNA:RNA)
RNA: B1 RNA with U25A, U26G, U28A, G31C
DNA 1: CAATCTGAATTCCGGTCTCCC
DNA 2: TGGTGGCTACGACGGGATT
B10: CUCCAGU (DNA:RNA)
RNA: B1 RNA with U25C, A27C, U28C, C29A, G31U
DNA 1: CAATCTGAATTCCGGTCTCCC
DNA 2: TGGTGGCTACGACGGGATT
B11: AAGGGCA (DNA:RNA)
RNA: B4 RNA with A29G, A30C, C31A
DNA 1: CAATCTGAATTCCGGTCTCCC
DNA 2: TGGTGGCTACGACGGGATT
B12: CCGCAAU (DNA:RNA)
RNA: B4 RNA with A25C, A26C, G28C, C31U
DNA 1: CAATCTGAATTCCGGTCTCCC
DNA 2: TGGTGGCTACGACGGGATT
B13: GGCUUGU (DNA:RNA)
RNA: B1 RNA with U25G, U26G, A27C, C29U, G31U
DNA 1: CAATCTGAATTCCGGTCTCCC
DNA 2: TGGTGGCTACGACGGGATT
B14: UAUCCCC (DNA:RNA)
RNA: B4 RNA with A25U, G27U, G28C, A29C, A30C
DNA 1: CAATCTGAATTCCGGTCTCCC
DNA 2: TGGTGGCTACGACGGGATT
B15: CGGUCAC (DNA:RNA)
RNA: B4 RNA with A25C, A26G, G28U, A29C
DNA 1: CAATCTGAATTCCGGTCTCCC
DNA 2: TGGTGGCTACGACGGGATT
B16: GGUGUGG (DNA:RNA)
RNA: B1 RNA with U25G, U26G, A27U, U28G, C29U
DNA 1: CAATCTGAATTCCGGTCTCCC
DNA 2: TGGTGGCTACGACGGGATT
B17: AUUCCGU (DNA:RNA)
RNA: B1 RNA with U25A, A27U, U28C, G31U
DNA 1: CAATCTGAATTCCGGTCTCCC
DNA 2: TGGTGGCTACGACGGGATT
B18: GGUGGCU (DNA:RNA)
RNA: B4 RNA with A25G, A26G, G27U, A29G, A30C, C31U
DNA 1: CAATCTGAATTCCGGTCTCCC
DNA 2: TGGTGGCTACGACGGGATT
B19: UCAUGGA (DNA:RNA)
RNA: B1 RNA with U26C, C29G, G31A
DNA 1: CAATCTGAATTCCGGTCTCCC
DNA 2: TGGTGGCTACGACGGGATT
B20: CCGCGCG (DNA:RNA)
RNA: B4 RNA with A25C, A26C, G28C, A29G, A30C, C31G
DNA 1: CAATCTGAATTCCGGTCTCCC
DNA 2: TGGTGGCTACGACGGGATT

Target: T1, RBFOX1 RRM
Experiment: EMSA; HiTS-Eq, 1 nM pool, 10 min; buffer printed only for the single-RNA assays: 10 mM Tris pH 7.5, 150 mM NaCl, 3.4 mM EDTA, 0.001% NP-40, 30 C
Conditions: tags: His6 N-terminal (pET28a); label: 5' 32P
Outline: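 Purified RbFox RRM, wild type or mutant, was incubated for 10 min in 50 µL with 1 nM of a 5′-radiolabelled RNA pool carrying 7 randomized nucleotides, whose flanks were annealed to DNA oligonucleotides, over a series of increasing protein concentrations. Unbound RNA was resolved on 8% native PAGE, cut out, reverse-transcribed, barcoded by PCR and sequenced on an Illumina HiSeq 2500. Relative association constants were derived from changes in read counts for each RNA species versus the control reaction and normalised to the cognate motif.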

Binder	binding signal
B1	0.0105 KA relative to UGCAUGU
B2	0.000326 KA relative to UGCAUGU
B3	0.0169 KA relative to UGCAUGU
B4	0.0107 KA relative to UGCAUGU
B5	0.0047 KA relative to UGCAUGU
B6	0.0144 KA relative to UGCAUGU
B7	0.0185 KA relative to UGCAUGU
B8	0.00725 KA relative to UGCAUGU
B9	0.00573 KA relative to UGCAUGU
B10	0.00611 KA relative to UGCAUGU
B11	0.00713 KA relative to UGCAUGU
B12	0.00521 KA relative to UGCAUGU
B13	0.0205 KA relative to UGCAUGU
B14	0.00216 KA relative to UGCAUGU
B15	0.0121 KA relative to UGCAUGU
B16	0.0188 KA relative to UGCAUGU
B17	0.00358 KA relative to UGCAUGU
B18	0.0164 KA relative to UGCAUGU
B19	0.00376 KA relative to UGCAUGU
B20	0.0119 KA relative to UGCAUGU
